# Assay results as given in the supplement of paper PMC8728848.
# This is one part of the list.
# Assays:
# Experiment in all cases: glycan array binding signal (z-score within array); higher = stronger binding
# Details in all cases: glycan notation: IUPAC condensed, linker removed
# [1] = target: Fuc(a1-2)Gal
# Method in brief: (§1)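 From the Consortium for Functional Glycomics database, 3228 arrays were curated, keeping only those whose protein sequence was available. Binding is given as a within-array Z-score averaged across arrays sharing a protein sequence and across linkers. Negative Z-scores can be read as non-binding.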
# [2] = target: Fuc(a1-2)Gal(b1-3)GalNAc
# Method in brief: as §1
# [3] = target: Fuc(a1-2)Gal(b1-3)GalNAc(a1-3)[Fuc(a1-2)]Gal(b1-4)Glc
# Method in brief: as §1
# [4] = target: Fuc(a1-2)Gal(b1-3)GalNAc(a1-3)[Fuc(a1-2)]Gal(b1-4)GlcNAc
# Method in brief: as §1
# [5] = target: Fuc(a1-2)Gal(b1-3)GalNAc(b1-3)Gal
# Method in brief: as §1
# [6] = target: Fuc(a1-2)Gal(b1-3)GalNAc(b1-3)Gal(a1-4)Gal(b1-4)Glc
# Method in brief: as §1
# [7] = target: Fuc(a1-2)Gal(b1-3)GalNAc(b1-4)[Neu5Ac(a2-3)]Gal(b1-4)Glc
# Method in brief: as §1
# [8] = target: Fuc(a1-2)Gal(b1-3)GlcNAc
# Method in brief: as §1
# [9] = target: Fuc(a1-2)Gal(b1-3)GlcNAc(b1-2)Man(a1-3)[Fuc(a1-2)Gal(b1-3)GlcNAc(b1-2)Man(a1-6)]Man(b1-4)GlcNAc(b1-4)GlcNAc
# Method in brief: as §1
# [10] = target: Fuc(a1-2)Gal(b1-3)GlcNAc(b1-3)Gal(b1-4)Glc
# Method in brief: as §1
# [11] = target: Fuc(a1-2)Gal(b1-3)GlcNAc(b1-3)[Fuc(a1-3)[Gal(b1-4)]GlcNAc(b1-6)]Gal(b1-4)Glc
# Method in brief: as §1
# [12] = target: Fuc(a1-2)Gal(b1-3)[Fuc(a1-4)]GlcNAc
# Method in brief: as §1
# [13] = target: Fuc(a1-2)Gal(b1-3)[Fuc(a1-4)]GlcNAc(b1-2)Man(a1-3)[Fuc(a1-2)Gal(b1-3)[Fuc(a1-4)]GlcNAc(b1-2)Man(a1-6)]Man(b1-4)GlcNAc(b1-4)GlcNAc
# Method in brief: as §1
# [14] = target: Fuc(a1-2)Gal(b1-3)[Fuc(a1-4)]GlcNAc(b1-3)[Fuc(a1-3)[Gal(b1-4)]GlcNAc(b1-6)]Gal(b1-4)Glc
# Method in brief: as §1
# [15] = target: Fuc(a1-2)Gal(b1-3)[Fuc(a1-4)]GlcNAc(b1-3)[Gal(b1-4)GlcNAc(b1-6)]Gal(b1-4)Glc
# Method in brief: as §1
# [16] = target: Fuc(a1-2)Gal(b1-4)Glc
# Method in brief: as §1
# [17] = target: Fuc(a1-2)Gal(b1-4)Glc6S
# Method in brief: as §1
# [18] = target: Fuc(a1-2)Gal(b1-4)GlcNAc
# Method in brief: as §1
# [19] = target: Fuc(a1-2)Gal(b1-4)GlcNAc(b1-2)Man(a1-3)[Fuc(a1-2)Gal(b1-4)GlcNAc(b1-2)Man(a1-6)]Man(b1-4)GlcNAc(b1-4)GlcNAc
# Method in brief: as §1
# [20] = target: Fuc(a1-2)Gal(b1-4)GlcNAc(b1-3)Gal(b1-4)GlcNAc
# Method in brief: as §1
# [21] = target: Fuc(a1-2)Gal(b1-4)GlcNAc(b1-3)Gal(b1-4)GlcNAc(b1-3)Gal(b1-4)GlcNAc
# Method in brief: as §1
# [22] = target: Fuc(a1-2)Gal(b1-4)GlcNAc(b1-3)GalNAc
# Method in brief: as §1
# [23] = target: Fuc(a1-2)Gal(b1-4)GlcNAc6S
# Method in brief: as §1
# [24] = target: Fuc(a1-2)Gal(b1-4)[Fuc(a1-3)]GlcNAc
# Method in brief: as §1
# [25] = target: Fuc(a1-2)Gal(b1-4)[Fuc(a1-3)]GlcNAc(b1-2)Man(a1-3)[Fuc(a1-2)Gal(b1-4)[Fuc(a1-3)]GlcNAc(b1-2)Man(a1-6)]Man(b1-4)GlcNAc(b1-4)GlcNAc
# Method in brief: as §1
# [26] = target: Fuc(a1-2)Gal(b1-4)[Fuc(a1-3)]GlcNAc(b1-3)Gal(b1-4)[Fuc(a1-3)]GlcNAc
# Method in brief: as §1
# [27] = target: Fuc(a1-2)Gal(b1-4)[Fuc(a1-3)]GlcNAc(b1-3)Gal(b1-4)[Fuc(a1-3)]GlcNAc(b1-3)Gal(b1-4)[Fuc(a1-3)]GlcNAc
# Method in brief: as §1
# [28] = target: Fuc(a1-2)Gal6S(b1-4)Glc
# Method in brief: as §1
# [29] = target: Fuc(a1-2)Gal6S(b1-4)Glc6S
# Method in brief: as §1
# [30] = target: Fuc(a1-2)Gal6S(b1-4)GlcNAc
# Method in brief: as §1
binder,measurement,setting,value
"cupB6 (Pseudomonas aeruginosa), Q02SP7 (protein) MSMRLFPGRVSLRRRPGAQARQALVLGLCCLTGGQAWALNEVALNCSFGNGKGLPWRVVNELTSGTAKGTVLFARPVSLFLSYKPQASQEAHELVLGGNWSGVGYPGPYGTVASDVKGIGYRISVDAQDGVKRVIPVDNQPHALDKRVTSFSGSTTSDYLQELVLTVDPGELPAGDLKVTSVSGSATLNLWAVDRLKGEASIGSVLAVPADNYPTGVCRKPYSLIGPASIAIGGGPPPPPIPKKCKVEVGREINVKLGSVALKNFPRVNDTSTERSFDISLSECAALAKPEIAFRDKYVSAQQADPTILSLKSGGAAGFGIVVKNGLDQQRIRFDGTPYPMRRVGDSADLPLSAAYIRIGAEGELKAGVADGAAEFTFTFP",glycan array binding signal (z-score),[1],0.029
same,glycan array binding signal (z-score),[2],0.085
same,glycan array binding signal (z-score),[3],-0.062
same,glycan array binding signal (z-score),[4],0.001
same,glycan array binding signal (z-score),[5],0.091
same,glycan array binding signal (z-score),[6],-0.202
same,glycan array binding signal (z-score),[7],-0.175
same,glycan array binding signal (z-score),[8],0.125
same,glycan array binding signal (z-score),[9],-0.047
same,glycan array binding signal (z-score),[10],-0.163
same,glycan array binding signal (z-score),[11],0.052
same,glycan array binding signal (z-score),[12],19.6
same,glycan array binding signal (z-score),[13],0.096
same,glycan array binding signal (z-score),[14],-0.084
same,glycan array binding signal (z-score),[15],0.133
same,glycan array binding signal (z-score),[16],-0.029
same,glycan array binding signal (z-score),[17],0.336
same,glycan array binding signal (z-score),[18],-0.089
same,glycan array binding signal (z-score),[19],0.022
same,glycan array binding signal (z-score),[20],0.239
same,glycan array binding signal (z-score),[21],-0.014
same,glycan array binding signal (z-score),[22],-0.188
same,glycan array binding signal (z-score),[23],-0.228
same,glycan array binding signal (z-score),[24],-0.107
same,glycan array binding signal (z-score),[25],0.275
same,glycan array binding signal (z-score),[26],0.023
same,glycan array binding signal (z-score),[27],0.007
same,glycan array binding signal (z-score),[28],0.068
same,glycan array binding signal (z-score),[29],-0.207
same,glycan array binding signal (z-score),[30],0.081
